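Method: 48-hour compound exposure of cells in 96-well plates, five concentrations, linear interpolation of endpoints. Here, GI50 denotes the concentration required for 50% inhibition of growth.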 Calls of active or inactive are those of the source. No stated cut-off is given here; in the data, active = GI50 up to about 1.1 µM and inactive = higher.
Tested on: NCI-H322M
Assay: DTP human tumour cell line panel, 48 h

Compound | GI50
N=C(N)NS(=O)(=O)c1ccc(NC(=O)c2cccc3c(NNc4ccc(C(=O)O)cc4)c4ccccc4nc23)cc1 | inactive: > 100 µM
CCCCOCN/C(N)=N/C#N | inactive: > 100 µM
CC(=O)OCC1OC(n2cnc3c(I)nc(I)nc32)C(OC(C)=O)C1OC(C)=O (stereo unspecified) | inactive: 17 µM
O=[N+]([O-])c1ccc(-c2ccc(-c3csc(Nc4ccccc4)n3)o2)cc1 | inactive: 56.8 µM
CCOP(=O)(/C=C/n1cnc2c(=O)n(C(C)=O)c(N)nc21)OCC | inactive: > 100 µM
O=P(OCc1ccccc1)(OCc1ccccc1)C(O)/C=C/c1ccccc1 (stereo unspecified) | inactive: 26.1 µM
OC12c3ccccc3C1(N1CCOCC1)CCCCC21OCCCO1 (stereo unspecified) | inactive: > 100 µM
CCOC(=O)C(OP(=O)(OCC)OCC)C(F)(F)F (stereo unspecified) | inactive: > 100 µM
O=C(CCc1nnc(S)[nH]1)Nc1ccccc1Cl | inactive: > 100 µM
CC(=O)OCC1=C2C(OC(=O)C(C)C)CC3(COC(C)=O)OC3/C=C\C3(C)OC3C2OC1=O (stereo unspecified) | inactive: > 100 µM
Cc1cc(=O)n2nc(SCc3ccccc3)sc2n1 | inactive: > 100 µM
Cc1cccc2c1C/C(=C1\CCc3c(C)cccc31)C2=O | inactive: > 100 µM
CC(C)NC(NC(C)C)=C(S(=O)(=O)C(F)(F)C(F)(F)C(F)(F)C(F)(F)F)S(=O)(=O)C(F)(F)C(F)(F)C(F)(F)C(F)(F)F | inactive: > 100 µM
Cc1nn2c(C(=O)N/N=C/c3ccccc3O)c(C)nc2s1 | inactive: 96.6 µM
COC(=O)C1=C(OC(=O)/C(=C/c2ccc(Cl)cc2)c2ccccc2)C(C(=O)OC)[C@@]2(O)[C@@H](C(=O)OC)[C@H](C)C[C@@H]1[C@@H]2C(=O)OC (stereo partly specified) | inactive: > 100 µM
COCC1OCCN1C (stereo unspecified) | inactive: > 100 µM
COC(=O)c1ccccc1C1CN=NC12Cc1cc3c(cc1C2=O)CCC3 (stereo unspecified) | inactive: > 100 µM
O=C(Nn1cnn2c(=O)c3ccccc3nc2c1=O)c1ccccc1 | inactive: > 100 µM
C/C(=N/NC(=S)N1CCCCC1)c1ccccc1O | inactive: > 31.6 µM
COC(=O)C1(C)CCCC2(C)c3cc(OC)ccc3C(=O)C(Br)C12 (stereo unspecified) | inactive: > 10 µM
CS(=O)(=O)OCCN1CCN(C(=O)c2ccc(Cl)c3c(Nc4ccc(S(=O)(=O)N=C(N)N)cc4)c4ccccc4nc23)CC1 | inactive: > 100 µM
C=CCn1c(=O)c2ccccc2[n+]2c(C)c(C(=O)OCC)sc12 | inactive: > 100 µM
C=CCN1C(=O)/C(=C\c2cc(C(C)(C)C)c(O)c(C(C)(C)C)c2)NC1=S | inactive: 22.7 µM

Compound | GI50
O=S(=O)(c1cc(Cl)ccc1Cl)n1ccnc1 | inactive: 35.3 µM
C=CCC1(C)CCCN(Cc2ccccc2)C1=O (stereo unspecified) | inactive: > 10 µM
C=CC[C@@H](N)C(=O)N(C)[C@@H](C)[C@@H](O)c1ccccc1 | inactive: > 100 µM
COc1cccc2[s+]snc12 | inactive: > 100 µM
C[N+](C)(C)Cc1c(CC#N)[nH]c2ccccc12 | inactive: > 100 µM
CC12CCC(C1)C(C)(C)C2OC(=O)c1ccccc1N (stereo unspecified) | inactive: 12.3 µM
C=C(CCCO)[C@@H]1CC[C@@](C)(O)[C@H]1C | inactive: > 100 µM
COC(=O)CCC(NC(=S)N/N=C(\C)c1ccco1)C(=O)OC (stereo unspecified) | inactive: > 100 µM
Cc1c(C(=O)C/C(=N/NC(=O)c2ccccc2)C(=O)Nc2ccc(Cl)cc2)[n+]([O-])c2ccccc2[n+]1[O-] | inactive: > 100 µM
COC(=O)C1C(C(=O)OC)C2(OC(c3ccc(Cl)cc3)=CC2=O)C12OC(c1ccc(Cl)cc1)=CC2=O (stereo unspecified) | inactive: 38.8 µM
N=C(N)N/N=C/c1c(-c2ccc([N+](=O)[O-])cc2)nc2sc(Cl)cn12 | active: 0.733 µM
COC(=O)/C=C(/C)n1nc2ccccc2n1 | inactive: > 100 µM
O=c1[nH][nH]c(=O)n1CCCCCCn1c(=O)[nH][nH]c1=O | inactive: > 100 µM
O=[N+]([O-])c1ccc(S[C@@H]2[C@H]3c4c(-c5ccccc5)[nH]c(-c5ccccc5)c4[C@@H]2C[C@H]3Cl)cc1 | inactive: 4.35 µM
Cc1cc(OCC(O)CO)ccc1-c1ccccc1 (stereo unspecified) | inactive: > 100 µM
Cc1cccc2c(O)c3c(O)cc(O)cc3nc12 | inactive: > 10 µM
COc1ccc(C(=O)Cc2c(C(=O)c3ccccc3)c3ccccc3n2C(=O)c2ccccc2)cc1 | inactive: 47.5 µM
CC(c1ccc2c(c1)CCC1C2CC2OC23CC=CC(=O)[C@]13C)C1C[C@]2(C)O[C@]2(C)[C@H](O)O1 (stereo partly specified) | inactive: 61.9 µM
O=C(Cc1nc2ccccc2s1)C(=O)Nc1ccccc1C(F)(F)F | inactive: > 100 µM
Nc1ccc2[nH]cc(CCC(=O)O)c2c1 | inactive: > 100 µM
C=CC1=C(C)c2cc3[nH]c(cc4nc(cc5[nH]c(cc1n2)c(C)c5CCC(=O)N(CC)CC)C(CCC(=O)N(CC)CC)=C4C)c(C)c3C=C | inactive: > 100 µM
COc1ccc(N2C(=O)C3c4[nH]c5ccc(F)cc5c4C4CCC(c5ccccc5)CC4C3C2=O)cc1 (stereo unspecified) | inactive: 72.1 µM
COC(=O)[C@@H]1C=C[C@@H](C#N)n2c(=O)n(-c3ccccc3)c(=O)n21 | inactive: 43.2 µM

Compound | GI50
O=C(CC(C(=O)c1ccsc1)c1ccc2c(c1)OCO2)c1ccccc1 (stereo unspecified) | inactive: > 100 µM
O=C1C=C2SC3C[C@@]24CC1[N+]1=c2c4c(c(O)c4c2=C(C=N4)CC1)N3 | inactive: 2.9 µM
Cc1cccc(NC(=O)C(=O)C2C(=O)NC(=O)NC2=O)c1C | inactive: > 100 µM
Nc1nc(Cl)cc(NCC(O)CO)n1 (stereo unspecified) | inactive: > 100 µM
CCOC(=O)C(CO)c1nc2c([nH]c1=O)c(=O)n(C)c(=O)n2C (stereo unspecified) | inactive: > 100 µM
O=C(NO)C12C3C4C1C1C2C3C41C(=O)NO (stereo unspecified) | inactive: > 100 µM
O=S(=O)(c1ccc(NC(=S)N/N=C/c2ccccc2O)cc1)N1CCCCC1 | active: < 0.0312 µM
CCOC(=O)Cc1csc2[n+]1C(=O)/C(=C/c1cccc(OC)c1O)S2 | inactive: 89.9 µM
COc1ccc2[nH]cc(/C=C(/C)c3ccncc3)c2c1 | inactive: 41.3 µM
CC1(C)CC(=O)c2[nH]c3ccccc3c2CC(=O)NCCc2cn1cn2 | inactive: > 100 µM
O=[N+]([O-])C1=Cc2c(O)ccc(O)c2C2c3ccccc3NC12 (stereo unspecified) | inactive: 15.1 µM
NC(=O)c1cccc([C@@H]2O[C@H](CO)[C@@H](O)[C@H]2O)c1 | inactive: 29 µM
COC(=O)C(=NNc1ccccc1[N+](=O)[O-])C(=O)OC | inactive: > 100 µM
CC/C=C/C[C@H](O[Si](C)(C)C(C)(C)C)[C@H]1C[C@H]2O[C@H]([C@@H](O)C#C[Si](C)(C)C)C[C@H]2O1 | inactive: 14.4 µM
COC(=O)c1nc2c3c(cccc3c1C(=O)OC)Nc1ccccc1-2 | inactive: 57.4 µM
Cc1cn([C@H]2C=C[C@@H](CO)O2)c(=O)[nH]c1=O [STAVUDINE] | inactive: > 1000 µM
CC(C)=CCNc1ncnc2c1c(C#N)cn2C1OC(CO)C(O)C1O (stereo unspecified) | inactive: 2.08 µM
CN(C)CCCn1c(Cc2ccc(Cl)cc2)nc2cc(C(F)(F)F)ccc21 | inactive: 16.8 µM
COC(=O)C1C2CC3C(OC(=O)C31)C2I (stereo unspecified) | inactive: > 100 µM
CCOC(=O)[C@H](Cc1ccccc1)NC(=O)c1nc[nH]c1[N+](=O)[O-] | inactive: > 100 µM
CCCCc1c2c(nc3c1CCc1cc4c(nc1-3)-c1nc3c(c(CCCC)c1CC4)CCC/C3=C\c1ccccc1)/C(=C/c1ccccc1)CCC2 | inactive: 75.2 µM
Cc1cc2nc3c(C)c4ccccc4c(C)n3c2cc1C | inactive: 2.58 µM
COc1cc(/C=C\c2nnc(/C=C\c3ccc(O)c(OC)c3)s2)ccc1O | inactive: 7.96 µM

Compound | GI50
CN1CCN(c2ccc3nc(C4=C(O)C(=O)[C@@H]5C(=C4O)N=C(CO)N5C)[nH]c3n2)CC1 | inactive: 33 µM
O=C(CCCl)NN=C1NCCN1 | inactive: > 100 µM
O=[N+]([O-])/C=C/c1cn(CCCCCn2cc(/C=C/[N+](=O)[O-])c3ccccc32)c2ccccc12 | inactive: 31.6 µM
CCc1nc2c([nH]1)C(=O)c1ccccc1C2=O | inactive: 73.1 µM
Cc1ccc(Cc2nnc(S)[nH]2)cc1 | inactive: 97.9 µM
O=C(O)c1cccc2cccc(-c3c4ccc(=O)cc-4oc4cc(O)ccc34)c12 | inactive: > 100 µM
Cc1cc2nc3c(C(O)CO)nn(-c4ccccc4)c3nc2cc1C (stereo unspecified) | inactive: 17.3 µM
CCC1(N=[N+]=[N-])C(=O)c2ccccc2N(c2ccccc2)C1=O (stereo unspecified) | inactive: > 100 µM
CCOC(=O)c1nc2cc(C(F)(F)F)ccc2nc1Oc1ccc(F)cc1 | inactive: > 100 µM
CCCCCN(CCCCC)C(=O)[C@@H](CCC(=O)O)NC(=O)c1cc2ccccc2[nH]1 | inactive: 30.5 µM
CN1CCC[N+](C)=C1c1ccccc1 | inactive: > 100 µM
COc1ccc(/C=C/NC=O)cc1 | inactive: > 100 µM
CCOC(=O)c1nnc2c(C#N)c(-c3ccccc3)c(C)n2c1N | inactive: 58.3 µM
COC(=O)C1=C(O)c2cc(OC)c(OC)c(OC)c2C(c2ccc3c(c2)OCO3)[C@@H]1C(=O)OC (stereo partly specified) | inactive: 6.89 µM
O=C(c1cccs1)N(C(=S)OCCOc1ccccc1)c1ccccc1 | inactive: 36.3 µM
CC(C)(C)OC(=O)c1ccc(NCC2=CC(=O)C=CC2=O)cc1 | inactive: 22.9 µM
C=C(NC(=O)C(=C)NC(=O)c1csc(C2=NC3c4csc(n4)C4NC(=O)c5csc(n5)C(C(C)(O)C(C)O)NC(=O)C5CSC(=N5)/C(=C/C)NC(=O)C(C(C)O)NC(=O)c5csc(n5)C3(CC2)NC(=O)C(C)NC(=O)C(=C)NC(=O)C(C)NC(=O)C(C(C)CC)NC2C=Cc3c(C(C)O)cc(nc3C2O)C(=O)OC4C)n1)C(N)=O (stereo unspecified) | inactive: 5.69 µM
NC(=O)SCC(=O)Nc1ccc2ncccc2c1 | inactive: 83.9 µM
Cc1ccc(NC(=O)CC(=O)n2nc(-c3ccccc3)c(/N=N\c3ccccc3[N+](=O)[O-])c2-c2ccccc2)cc1 | inactive: > 100 µM
O=C1CSC(c2ccc([N+](=O)[O-])cc2)N1c1nc(-c2ccc3c(c2)CCCC3)cs1 (stereo unspecified) | inactive: > 100 µM
COc1ccc2c(c1)CCCN2S(=O)(=O)c1ccccc1[N+](=O)[O-] | inactive: 70.8 µM
COc1ccc2c(=O)oc3c(OC)cc(CCN(C)C)c4c(=O)oc1c2c34 | inactive: 16.3 µM

From ChEMBL document CHEMBL1201862, “PubChem BioAssay data set” (2004)
